Data reported in PubChem BioAssay (NCI).
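Following 48 hours of exposure in 96-well plates, responses at five concentrations were used to interpolate endpoints linearly. GI50 marks 50% less growth. TGI marks complete inhibition of growth.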

These molecules were tested on NCI-H322M lung (assay: NCI-60 cell line screen, 48 h).
`O=C(c1ccccc1)c1sc2c(=O)c(C(=O)c3ccccc3)c(C(=O)c3ccccc3)sc2c(=O)c1C(=O)c1ccccc1` was tested, and the TGI was over 100 µM.
`O=c1cc(-c2ccc(Cl)cc2)oc2cc(OCCCOc3ccc4c(=O)cc(-c5ccc(Cl)cc5)oc4c3)ccc12` gave a TGI of over 100 µM.
`Nc1nc(N)c2nc(CNc3ccc(C(=O)NC(CCCNC(=O)c4ccccc4C(=O)O)C(=O)O)cc3)cnc2n1` (configuration not stated) was tested, and the TGI was over 100 µM.
`CCOC(=O)c1cnc(-n2[nH]c3c(c2=O)CCCC3)[nH]c1=O` showed a TGI of over 100 µM.
In the case of `COc1cnc2c(c1)C(=O)c1c-2n(CCCN2CCCC2)c(=O)c2cc(F)ccc12`, the GI50 is reported as 0.434 µM and the TGI is reported as 10.7 µM.
`CN(CCCl)c1ccc(/C=C/C2=[N+](C)c3ccccc3C2(C)C)cc1` showed a GI50 of 1.11 µM and a TGI of 15.1 µM.
`COc1ccc(C(=O)COc2cccc(/C=C3\CSc4ccc(C)cc4C3=O)c2)cc1` gave a GI50 of over 100 µM and a TGI of over 100 µM.
In the case of `O=C(CC(=O)C1CCOC1=O)C(=O)Nc1ccc(Cl)cc1Cl` (configuration not stated), the TGI is reported as over 100 µM.
With `CC(=O)OC1CC[C@]2(C)C3CC[C@@]4(C)C(CCC4[C@H](C)CCCC(C)C)[C@@H]3CCC2(Br)C1` (some centres not stated) the TGI was over 50 µM.
Work on `O=C1c2c(O)cc(O)cc2OC(c2ccc(O)cc2O)C1O` (configuration not stated) yielded a GI50 of over 100 µM and a TGI of over 100 µM.
Molecule `CC/C(C)=C1\OC(=O)C(C)C(O)C(Cc2cccnc2)NC(=O)C(NC(=O)c2ncccc2O)C(C)OC1=O` (configuration not stated) has a TGI of over 100 µM.
With `O=C(O)c1ccccc1/C=N/NC1=NCCCCN1` the TGI was over 100 µM.
For `CCCSC1=NC2C(N(CC)C(=O)N2CC)N1/N=C/C=C/c1ccccc1[N+](=O)[O-]` (configuration not stated), the GI50 was 8.73 µM and the TGI was over 100 µM.
In the case of `Cc1c(C)c(S(=O)(=O)N(CCCN)OCCCN)c(C)c2c1OC(C)(C)C2`, the TGI is reported as over 100 µM.
`C=C(Cl)C(=C)CCC(Cl)C(C)C` (configuration not stated) showed a TGI of over 100 µM.
With `C/C=C/C(=O)N1C(=O)OC[C@@H]1c1ccccc1` the TGI was 32.6 µM.
Work on `C=C1CN(Cc2ccccc2)[C@@H]2CCCCC[C@H](C#N)[C@H]12` yielded a TGI of over 100 µM.
`COC(OC)[C@@H](C)[C@H](O)[C@](C)(O)C1OC(C)(C)OC(C(C)C=C(C)C)C1C` (some centres not stated) showed a TGI of over 100 µM.
For `NC(=O)NC(=O)c1cccc(NC(=O)CBr)c1`, the TGI was 16 µM.
`CC(=O)[O][Hg][c]1ccccc1` showed a GI50 of 1.52 µM and a TGI of 3.02 µM.
Work on `CCCCn1sc(=O)n(Cc2ccc(CNC(=O)OCc3ccc4c(Br)cc(Br)c(O)c4n3)cc2)c1=O` yielded a GI50 of 2.4 µM and a TGI of over 100 µM.
`CCC[CH2][Sn]([CH2]CCC)([O]C(=O)C1CCC(=O)N1)[O]C(=O)C1CCC(=O)N1` (configuration not stated) was tested, and the GI50 was 1.34 µM and the TGI was 2.62 µM.
`CC(C)(C)C(=O)O[C@@H]1COC2C(O)COC21` (some centres not stated) gave a TGI of over 100 µM.
In the case of `C=CCN(C)CN(C)c1nc(N(C)C)nc(N(C)C)n1`, the TGI is reported as over 100 µM.
For `OC(c1ccccn1)C1CNc2ccccc21` (configuration not stated), the TGI was over 100 µM.
`COc1ccc(-c2csc(-c3cc(Cl)cc(Cl)c3Cl)n2)cc1` was tested, and the GI50 was over 100 µM and the TGI was over 100 µM.
For `Cc1ccc(/C=C/C(=N/NC(=O)N/N=C(/C=C/c2ccc(C)cc2)C(C)(C)CN2CCCCC2)C(C)(C)CN2CCCCC2)cc1`, the TGI was 4.23 µM.
`[N-]=[N+]=NC(CBr)c1cn([C@H]2C[C@H](O)[C@@H](CO)O2)c(=O)[nH]c1=O` (some centres not stated) showed a TGI of over 100 µM.
Work on `CCCCC(=O)Oc1ccc2c(C)cc(=O)oc2c1` yielded a TGI of over 100 µM.
Work on `O=[N+]([O-])/C(C(Cl)=C(Cl)Cl)=C(/Sc1ccccc1)N1CCCCC1` yielded a TGI of over 100 µM.
In the case of `NC(Cc1ccccc1)(C(=O)O)C(=O)O`, the TGI is reported as over 100 µM.
In the case of `O=C(O)CCCOc1cc(-c2ccccc2F)nc2cc3c(cc12)OCO3`, the TGI is reported as over 100 µM.
In the case of `Cc1cc(NS(=O)(=O)c2ccc(Nc3c4ccccc4nc4ccc(C(=O)Nc5ccc(S(N)(=O)=O)cc5)cc34)cc2)no1`, the TGI is reported as over 100 µM.
Molecule `C[C@]12[C@@H]3CC[C@H]1[C@@H](OC(=O)Nc1cc([N+](=O)[O-])cc([N+](=O)[O-])c1)C(=O)N2CC3` has a TGI of over 100 µM.
`C=C1C(=O)O[C@H]2[C@H]1CC/C(COC(=O)c1ccc(C#N)cc1)=C\CC[C@@]1(C)O[C@@H]21` was tested, and the GI50 was 4.34 µM and the TGI was 16.1 µM.
For `CCN1C(=O)N(c2ccccc2)C2NN=c3s/c(=C4\C(=O)N(C(C)C)c5ccccc54)c(=O)n3C21` (configuration not stated), the GI50 was 3.01 µM and the TGI was over 100 µM.
Molecule `O=C(OCc1ccc2c(Cl)cc(Cl)c(O)c2n1)c1cc2ccccc2[nH]1` has a GI50 of 1.66 µM and a TGI of 3.13 µM.
Molecule `COc1cc(N(CCC#N)CCC#N)ccc1/C(N=Nc1ccccc1)=N/NC(=O)c1cc(Br)ccc1O` has a TGI of 86.5 µM.
`C[C@H]1C(Oc2ccc(O)cc2)OC2OC3(C)CCC4[C@H](C)CCC1C24OO3` (some centres not stated) gave a GI50 of 16.3 µM and a TGI of 31.1 µM.
For `CC1=C(c2cc(C(=O)Nc3cccc(C(F)(F)F)c3)ncn2)Sc2ccccc2N1`, the TGI was over 100 µM.
`COc1cc([C@@H]2c3cc4c(cc3[C@@H](NC(=O)c3cccc(F)c3)C3COC(=O)[C@@H]32)OCO4)cc(OC)c1O` (some centres not stated) showed a TGI of over 100 µM.
For `c1ccc(-c2nnc(-c3nsc4ccccc34)o2)cc1`, the TGI was over 100 µM.
`CCOC(=O)NC(=O)c1cn(CCN2CCN(C(=O)CCCCCCCCCCNc3ncnc4nc[nH]c34)CC2)c(=O)[nH]c1=O` gave a TGI of over 100 µM.
`Cc1cc(C)nc(SC2=C(Nc3cccc(Cl)c3C)C(=O)N(Cc3ccccc3)C2=O)n1` was tested, and the GI50 was over 160 µM and the TGI was over 160 µM.
Work on `CC(=O)OC1CC2C(C)(C)C(=O)C=CC2(C)C2CCC3(C)C(c4ccoc4)OC(=O)C4OC43C12C` (configuration not stated) yielded a TGI of over 100 µM.
In the case of `CS(=O)(=O)CCNCc1ccc(-c2ccc3ncnc(Nc4ccc(OCc5ccccc5)c(Cl)c4)c3c2)o1`, the GI50 is reported as 0.854 µM and the TGI is reported as over 25 µM.
In the case of `Cc1cc(OCC(=O)N/N=C/C(Br)=C/c2ccccc2)nc(SCC(=O)N/N=C/C(Br)=C/c2ccccc2)n1`, the TGI is reported as over 100 µM.
